The supplement of paper PMC12217912
Some of the results follow. Sequences were assembled here from the parent chain. Values near 0.05 are background.

B1: TEV protease; numbered along this chain (parent)
chain: MGESLFKGPRDYNPISSSICHLTNESDGHTTSLYGIGFGPFIITNKHLFRRNNGTLVVQSLHGVFKVKDTTTLQQHLVDGRDMIIIRMPKDFPPFPQKLKFREPQREERICLVTTNFQTKSMSSMVSDTSCTFPSGDGIFWKHWIQTKDGQCGSPLVSTRDGFIVGIHSASNFTNTNNYFTSVPKNFMELLTNQEAQQWVSGWRLNADSVLWGGHKVFMVKPEEPFQPVKEATQL

Variants of: B1
Experiment: raw area under fraction-flipped curve 0-4 h after induction (AUC4h, not background-subtracted), DNA-recorder readout of cleavage of the substrate (dimensionless); higher = more cleavage of the substrate by the protease variant
Settings: temperature: 34 °C; time window: 0-4 h after rhamnose induction
Method: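 In vivo DNA recorder in E. coli TOP10(DE3) ΔrhaA at 34 °C. Each TEVp single-site mutant (parent TEVp 0) is paired with a single-site variant of the 7-mer TEVs (canonical ENLYFQ|S). The substrate sits between flexible linkers in a Bxb1-sfGFP-TEVs-SsrA fusion, so cleavage stabilises Bxb1 and speeds flipping of a recombination array, read by NGS. The value is the raw area under the fraction-flipped curve over 0-4 h after rhamnose induction (AUC4h), with ≥20 reads per time point. It is not background-subtracted; inactive controls average about 0.047.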
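Further: Bxb1 expression induced with 0.2% (w/v) L-rhamnose at OD600 near 0.5, cultures sampled hourly, flipped fraction per protease–substrate barcode pair counted by paired-end Illumina sequencing.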

Row | Variant | area with substrate EALYFQS | area with substrate ECLYFQS | area with substrate EGLYFQS | area with substrate EHLYFQS | area with substrate EILYFQS | area with substrate EKLYFQS | area with substrate ELLYFQS | area with substrate EMLYFQS | area with substrate EQLYFQS | area with substrate ERLYFQS | area with substrate ESLYFQS | area with substrate EVLYFQS | area with substrate EWLYFQS | area with substrate EDLYFQS | area with substrate EELYFQS | area with substrate EFLYFQS | area with substrate EPLYFQS | area with substrate EYLYFQS | area with substrate ETLYFQS
1 | MGESLFKGPRDYNPISSSICHLTNESDGHTTSLYGIGFGPFIITNKHLFRRNNGTLVVQSLHGVFKVKDTTTLQQHLVDGRDMIIIRMPKDFPPFPQKLKFREPQREERICLVTTNFQTKSDSSMVSDTSCTFPSGDGIFWKHWIQTKDGQCGSPLVSTRDGFIVGIHSASNFTNTNNYFTSVPKNFMELLTNQEAQQWVSGWRLNADSVLWGGHKVFMVKPEEPFQPVKEATQL [M122D] | 0.128 | 0.113 | 0.0881 | 0.126 | 0.0847 | 0.11 | 0.0969 | 0.0695 | 0.14 | 0.0887 | 0.102 | 0.0791 | 0.101 | – | – | – | – | – | –
2 | MGESLFKGPRDYNPISSSICHLTNESDGHTTSLYGIGFGPFIITNKHLFRRNNGTLVVQSLHGVFKVKDTTTLQQHLVDGRDMIIIRMPKDFPPFPQKLKFREPQREERICLVTTNFQTKSCSSMVSDTSCTFPSGDGIFWKHWIQTKDGQCGSPLVSTRDGFIVGIHSASNFTNTNNYFTSVPKNFMELLTNQEAQQWVSGWRLNADSVLWGGHKVFMVKPEEPFQPVKEATQL [M122C] | 0.111 | 0.1 | 0.0982 | 0.107 | 0.0964 | 0.116 | 0.0996 | 0.127 | 0.127 | 0.07 | 0.103 | 0.127 | 0.121 | 0.101 | 0.144 | 0.128 | 0.13 | 0.0965 | –
3 | MGESLFKGPRDYNPISSSICHLTNESDGHTTSLYGIGFGPFIITNKHLFRRNNGTLVVQSLHGVFKVKDTTTLQQHLVDYRDMIIIRMPKDFPPFPQKLKFREPQREERICLVTTNFQTKSMSSMVSDTSCTFPSGDGIFWKHWIQTKDGQCGSPLVSTRDGFIVGIHSASNFTNTNNYFTSVPKNFMELLTNQEAQQWVSGWRLNADSVLWGGHKVFMVKPEEPFQPVKEATQL [G80Y] | 0.149 | 0.0987 | – | – | 0.0898 | 0.122 | 0.111 | 0.0935 | 0.117 | 0.115 | 0.116 | – | – | 0.174 | – | 0.0833 | 0.126 | – | 0.11
4 | MGESLFKGPRDYNPISSSICHLTNESDGHTTSLYGIGFGPFIITNKHLFRRNNGTLVVQSLHGVFKVKDTTTLQQHLVDGRDMIIIRMPCDFPPFPQKLKFREPQREERICLVTTNFQTKSMSSMVSDTSCTFPSGDGIFWKHWIQTKDGQCGSPLVSTRDGFIVGIHSASNFTNTNNYFTSVPKNFMELLTNQEAQQWVSGWRLNADSVLWGGHKVFMVKPEEPFQPVKEATQL [K90C] | 0.127 | 0.121 | 0.103 | 0.0814 | 0.0873 | – | 0.107 | – | – | 0.0989 | 0.112 | 0.0799 | 0.0877 | – | 0.114 | – | 0.102 | – | –
5 | MGESLFKGPRDYNPISSSICHLTNESDGHTTSLYGIGFGPFIITNKHLFVRNNGTLVVQSLHGVFKVKDTTTLQQHLVDGRDMIIIRMPKDFPPFPQKLKFREPQREERICLVTTNFQTKSMSSMVSDTSCTFPSGDGIFWKHWIQTKDGQCGSPLVSTRDGFIVGIHSASNFTNTNNYFTSVPKNFMELLTNQEAQQWVSGWRLNADSVLWGGHKVFMVKPEEPFQPVKEATQL [R50V] | 0.184 | 0.148 | – | 0.217 | 0.124 | – | 0.127 | 0.176 | 0.162 | 0.136 | – | 0.121 | 0.131 | 0.143 | – | – | 0.159 | – | –
6 | MGESLFKGPRDYNPISSSICHLTNESDGHTTSLYGIGFGPFIITNKHLFRRNNGTLVVQSLHGVFKVKDTTTLQQHLVDGRDMIIIRMPKDFPPFPQKLKFREPQREERICLVTTNFQTKSMSSMVSDTSCTFPSGDGIFWKHWIQTKDGQCGSPLVSTRDGFIVGIHSASNFTNTNNYFTSVPKNFMELLTNQEAQQWVSGWRLNADSVLWGGHKVFMYKPEEPFQPVKEATQL [V220Y] | 0.1 | 0.0914 | – | – | 0.0871 | 0.0938 | 0.0847 | 0.13 | 0.103 | 0.0899 | 0.0953 | 0.118 | – | – | 0.122 | 0.0797 | 0.0953 | 0.0944 | 0.134
7 | MGESLFKGPRDYNPISSSICHLTNESDGHTTSLYGIGFGPFIITNKHLFRRNNGTLVVQSLHGVFKVKDTTTLQQHLVDGRDMIIIRMPKDFPPFPQKLKFREPQREERICLVTTNFQTKSMSSMVVDTSCTFPSGDGIFWKHWIQTKDGQCGSPLVSTRDGFIVGIHSASNFTNTNNYFTSVPKNFMELLTNQEAQQWVSGWRLNADSVLWGGHKVFMVKPEEPFQPVKEATQL [S127V] | 0.118 | 0.0728 | 0.0874 | 0.06 | 0.103 | 0.138 | 0.109 | – | 0.119 | 0.13 | 0.113 | 0.13 | – | 0.0855 | 0.141 | – | 0.121 | – | 0.11
8 | MGESLFKGPRDYNPISSSICHLTNESDGHTTSLYGIGFGPFIITNKHLFRRNNGTLVVQSLHGVFKVKDTTTLQQHLVDGRDMIIIRMPKDFPPFPQKLKFREPQREERICLVTTNFQTKSMSSMVSDTSCTFPSGDGIFWKHWIQTKDGQCGSPLVSTRDGFIVGIHSASNFTNTNNYFTSVPKNFMELLTNQEAQQWRSGWRLNADSVLWGGHKVFMVKPEEPFQPVKEATQL [V200R] | 0.0873 | – | – | – | 0.12 | – | – | 0.0782 | – | – | 0.103 | – | – | – | – | – | – | – | –
9 | MGESLFKGPRDYNPISSSICHLTNESDGHTTSLYGIGFGPFIITNKHLFRRNNGTLVVQSLHGVFKVKDTTTLQQHLVDGRDMIIIRMPKDFPPFPQKLKFREPQREERICLVTSNFQTKSMSSMVSDTSCTFPSGDGIFWKHWIQTKDGQCGSPLVSTRDGFIVGIHSASNFTNTNNYFTSVPKNFMELLTNQEAQQWVSGWRLNADSVLWGGHKVFMVKPEEPFQPVKEATQL [T115S] | 0.101 | 0.0936 | 0.0506 | – | 0.0914 | 0.104 | 0.103 | – | – | 0.0836 | 0.106 | 0.111 | – | 0.16 | – | 0.0957 | 0.11 | – | 0.122
